Laboratory results taken from the supplement of paper PMC3724861.
This is one part of the list.

test system: T1, Caupolican (Caup) homeodomain DNA-binding domain; assay: PBM E-score (8-mer, recovered from the published 9-mer minima) (E-score (dimensionless, -0.5 to 0.5)); Drosophila protein; higher = stronger relative binding preference, active = 0.31 or more
T1 sequence: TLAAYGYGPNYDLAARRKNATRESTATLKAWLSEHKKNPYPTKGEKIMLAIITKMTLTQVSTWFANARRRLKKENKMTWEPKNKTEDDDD
In short: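 Caup's homeodomain DNA-binding domain (residues 214-303) was made by in vitro transcription and translation and applied at 100 nM to custom-designed protein binding microarrays. Each value is an enrichment score that gives relative binding preference for a short DNA word, with higher meaning stronger. The 8-mer values were recovered from published 9-mer scores, each of which was the minimum of its two constituent 8-mer scores. A cutoff of 0.31 marks candidate sites.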

PBM E-score, ≥ -0.0895:
ACTGGGCC

PBM E-score, ≥ 0.117:
ACGTTAAT

PBM E-score, ≥ -0.0889:
AACGGCCG

PBM E-score, ≥ 0.00982:
AGTGACCA

PBM E-score, ≥ 0.0809:
AACGGTGC

PBM E-score, ≥ 0.0955:
AAGGATTG

PBM E-score, ≥ 0.0463:
ATTCCACC

PBM E-score, ≥ 0.174:
TACTAGCA

PBM E-score, ≥ -0.0163:
GACCGGTC

PBM E-score, ≥ 0.111:
ATCGAGAA

PBM E-score, ≥ -0.00144:
AGAGTCTA

PBM E-score, ≥ 0.0335:
TACCCAGA

PBM E-score, active:
GTATGTAA 0.369, GGCTTGTA 0.312, ACAACATG 0.441

PBM E-score, inactive:
AGGCTCCA -0.142, CATATTAG 0.149, CCCGTAAA -0.0711, ACATGGGA 0.276, GAAGGGGA -0.239, ATTACTAG 0.175, GCGGCCAA -0.188, ATTCCTGG -0.0689, CACCGAAC 0.0165, CCCCGTTC -0.171, AACCGTAC 0.0384, CGTAGTTA 0.157, ATCGGGAA -0.0208, CACGCGTG -0.00038, CCGATCAG -0.0191, AGCGCACA -0.0389, GTAATCAC 0.205, ACCCACCG -0.155, CCGCTCCA -0.193, GATAAGCC -0.0964, GAGCCGAA -0.0974, ACTGACAC 0.176, AAGGGAAT -0.0459, ATGCAGGC -0.00763, AAAGAGGC -0.0651, CAAGGCAG -0.0318, AGGCGTGA -0.0652, CCTCAAGG -0.169, TGGCGTAA -0.0043, CGTATCGC -0.00104, CGCACTAA -0.00162, ACGAGGAC 0.0691, CGTAATAA 0.147, TACAGCCA 0.0499, TTCCACAA 0.0524, CTCCTCTC -0.2, GCCCCCAC -0.336, ATCGAAGA 0.0597, CGCATTGC 0.0279, ATGCCGTA 0.022, CTGAACGA 0.0763, CACGCCTG -0.0517, AAGTACCG 0.0956, AGTAAGCG -0.0451, AAGTTCTC -0.0194, CCACCGTC -0.267, TATGCTAA 0.122, AGACAGCC -0.0905, TATACGGA 0.0472, CCCTTTAA -0.0864, GCCTTACA 0.108, CGGATCAC 0.00076, CCATCCGC -0.078, AAGTTTGT 0.173, ACATCGTG 0.219, CTCTCTCA -0.119, CATCTCAC -0.0485, CACACACC 0.123, CTCCGGCC -0.351, AACCGATC 0.0187, GTCACATA 0.173, CGCCGTGC -0.163, GCTCGCGA -0.0573, GATAGGTA 0.124, AATCCTGG -0.0874, ACATTTAG 0.184, TCGATCGA -0.0238, AACTGGCC -0.147, CCAAGATA 0.106, ACGATGTC 0.261, GATATCTA 0.125, CATCGCCA -0.0902, AAACCCTT 0.0757, GAAGGTGC -0.107, GTTCTCTA 0.028, CGCTTAGA -0.12, CATGCCAG -0.0687, ATCATGAG 0.0725, GATACCTA 0.124, ATTTCGCC -0.0602, CGTTTCTA 0.0559, AGCGAACG -0.172, CGGAGCCG -0.275, ACGAATCG 0.0318, CGGTTGCA -0.0742, GATACAGA 0.164, CGGCTGAC -0.0396, CTTCTCGC -0.104, AGCTACAC 0.266, TCCAGTAA -0.0383, AGTGTTTG 0.236, CTTAGGAC 0.0158, CCCACGAA -0.128, GCTACCCC -0.199, CGTACCAC 0.0316, CAGCAGCC -0.127, ACGGTCAC -0.133, CACGCAAC 0.0415, AACACCTA 0.183, CCCATGCC -0.203, ACGCCACG -0.128, ATCCGCCC -0.211, GACACACA 0.258, CCGCCAGA -0.121, CAGAAGGG -0.177, ACACTGTG 0.158, TCCGAACA 0.159, AAAGGGGA -0.201, ACACGCAC 0.213, CGCGCGAC -0.143, TCTTAGCA -0.078, AGTAAGTG 0.00023, GGCGCGAA -0.169, GTGAACAC 0.256, ATGCGGAG -0.09, AGTTCTAT 0.0299, ACGAGTGA 0.0281, CTGTTGGC -0.0498, TCGTTAGA -0.0692, GGCTGGGA -0.226, GTATAAAA 0.116, CATCCCGA 0.0331, GCCTCTCA -0.189, GGTTTCAC 0.0672, GTAACTTA 0.176, TGTTAGAA 0.242, ACACCTAT 0.145, AACCTCTC -0.106, AGACGTAC 0.0508, CCCAGGCA -0.162, CCGTGAGG -0.208, CGATACTC -0.0512, ACCGCCAT -0.0994, CTTCGCCA -0.113, AAGCCCAC -0.142, CAATCATC 0.024, GCGAGACA 0.0367, AGTTCTGG -0.0428, ACCATGCA 0.0966, CAATCATG 0.179, GATTCGCA -0.0575, CCTAAGGC -0.234, GACCCGAA -0.123, GATTACCC 0.0655, GATAGGCC -0.139, CAAAATCG 0.00958, ACGTCCCG -0.18, AGACTTGC -0.025, CGGATCCC -0.2, AGCATTTA 0.00903, ACGCGTCC -0.12, CTGGCAGC -0.225, CTGGCCGA -0.224, GTACTGAA 0.126, ACAATGGC 0.0838, AAGCAGTA 0.00217, CACCTAAA 0.0144, GCGTAGCC -0.154, CATGGTCA 0.145, CGAGATCC -0.0366, ACAAGCTG 0.2, AGGAGGTG -0.0888, CAAGCGCG -0.0994, GGCTAATA 0.0405, AGAAAGGG -0.122, CGCTTTGC -0.0868, GTCTTCTA 0.00178, CACACGCC -0.0239, CTAATTCC 0.114, AGTCACGG -0.0412, AGGCGCAT -0.0417, GTCAAGAA 0.0535, ATTGTGAC 0.125, ATTTAAAA 0.0428, CGCACACG -0.117, GGGACCTA -0.169, AATCAAGG -0.0667, CTAGCAGA -0.018, CCCAAGTA -0.126, CCCGGCAC -0.152, GTACGCAA 0.106, GCAGTTTA 0.00229, CTGAGGGA -0.138, AACCATAA 0.103, ACCGCACC -0.127, TAGAAGCA -0.00473, AGGTGTTG 0.125, TCATTCAA 0.0654, GTGTCGGA 0.204, GGAGTGAA -0.0468, AGCTGAAG -0.0859, AGCACCGC -0.176, CGAACCTC -0.0651, CAGCCTTA -0.0523, AAGTGGAA 0.0309, CAATAATA 0.182, CCCAAACC -0.207, CCGCTATC -0.126, CTCTGCAC -0.107, AATACGCC -0.0369, AAAGCACT 0.0422, GGATTTGA -0.0346, CGTCCCCA -0.168, CCTATACA 0.176, CACGGTGC -0.0185, CCATCGCC -0.211, ACGACCCG -0.0769, ACGGGGGA -0.194

PBM E-score, ≥ 0.0604:
CGATCCAC

PBM E-score, ≥ 0.0476:
AGCGTTAT

PBM E-score, ≥ 0.265:
ATATATTA
